Data taken from ChEMBL document CHEMBL5308541, “MAIP: An Open-Source Tool to Enrich High-Throughput Screening Output and Identify Novel, Druglike Molecules with Antimalarial Activity” (ACS Med Chem Lett, 2023).
About 540 (0.36%) of roughly 150,000 compounds showed an effect of 50% or more. This is one part of the list.

System: Plasmodium falciparum
Assay: Primary screen in NF54 nanoGlo assay, in single point, at 2uM, 72h; a lower Z score goes with more inhibition
Format: functional, Erythrocyte
Settings: timepoint 72 hour

SMILES	% Inhibition	Z score
CCCS(=O)(=O)Nc1cccc(NCc2cccc3[nH]ccc23)c1	-2%	0.33
CN(C)C1CCCN(c2cc(NC3CCCOC3)ncn2)C1 (stereo unspecified)	-14%	2.06
N#Cc1c(-c2cccc3cnccc23)cc(-c2ccc[nH]2)nc1N	-15%	2.3
N#Cc1ccnc(-c2ccc(C(=O)N(CCO)C3CCCCC3)cc2)c1	-8%	1.43
c1ccc(-c2cc(-c3c(N4CCCC4)nc4ccccc4c3-c3ccccc3)nc3ccccc23)cc1	-15%	2.34
CCN1CCN(C2CCN(C(=O)C(Cc3c[nH]c4cc(F)ccc34)NC(C)=O)C2)CC1 (stereo unspecified)	1%	-0.23
CN1CCN(c2ccc(-c3cccc(C(=O)N4CC[C@H](N)C4)c3)nn2)CC1	-5%	0.84
Fc1cc(-c2ccc(OCCN3CCCC3)cc2)c2ncccc2c1	1%	-0.2
COCCN(Cc1ccccc1Cl)C(=O)CCN1CCCCCC1=O	-17%	2.92
Cc1ccc(C2CC2C(=O)Nc2ncn(CC(=O)O)n2)cc1C (stereo unspecified)	6%	-1.29
CC(C)n1ncc2cc(CNc3ccc4[nH]ncc4c3)cnc21	-9%	1.52
O=C(NCc1ccncc1O[C@H]1CCNC1)c1c[nH]c2ncccc12	-5%	0.79
Cc1nccn1-c1ccc([C@H](C)Nc2nc(N)c3cnn(C)c3n2)cc1	-3%	0.53
COCCN(Cc1nccs1)C(=O)C[C@H]1C(=O)N(C)C(=O)N1C	-3%	0.54
CC(C)(NC(=O)c1ccc(-n2cnnc2)nc1)c1nnc(N)s1	-6%	1.23
Clc1ccc(CNc2cccc(Cn3cnnc3)c2)c2ncccc12	3%	-0.53
C[C@@H](CNC(=O)N(CCc1ccccc1)Cc1cccnc1)N1CCOCC1	-3%	0.64
C[C@@H](c1cccnc1)N(C)Cc1cccc(OC2CCCC2)c1	7%	-1.07
O=C(c1c[nH]c2ccccc12)N1CC(Cn2nc(-c3cccnc3)ccc2=O)C1	-4%	0.83
Cc1c(C#N)c(-c2ccc([C@H](C)N3CCOCC3)cc2)c(C)n1C	-8%	1.49
CC1CN(Cc2cccc(NC3CCN4CCCC4C3)c2)CC(C)O1 (stereo unspecified)	-12%	2.09
Cc1n[nH]c(C2CCN(C(=O)c3cc(N4CCOCC4)no3)CC2)n1	-3%	0.58
c1cc(-c2nnc3ccc(NCc4ccn(C5CCCC5)n4)nn23)ccn1	-2%	0.32
